# According to article PMC12136788:
# The other results are listed elsewhere or left out.
# B1: chr5:135103553:135103554:-_ENSMUSG00000040731_ENSMUST00000036125|perfect_dup|FALSE|FALSE (ssRNA)
# RNA: GGGAGUUCUACAGUCCGACGAUCGUCUUUGUCUCUGACUAGCCGUACACUCCUUAUGCUGAGAUCCUUAAAGAUAGCAUCUAUGUCGCCCUGAACCGUAUUGAAAGGUAGAUUUCCUACGUAUGCUGUGUAGGGGGGCUCUGUCAACAGAGGAUUGAGCAUCA
# B2: chr5:145543945:145543946:-_ENSG00000133706_ENST00000545646|hu_hu|hu_hu_hu_mus_True|38_108 (ssRNA)
# RNA: GGGAGUUCUACAGUCCGACGAUCCUGAAUAGCCAGUGGUGGGAAAUAAUCAAGCCAGUGCUCUGCUUCAGAAAACUUCACUAUGUCGUCAUCAGAGAGGCCAAGGGAUUUCAUAAUGUCCCACUGGUACUUAGAAGAUCCUGCCAACAGAGGAUUGAGCAUCA
# B3: chr3:150289932:150289933:+_ENSG00000144895_ENST00000460851|hu_hu|hu_hu_hu_mus_False|58_78 (ssRNA)
# RNA: GGGAGUUCUACAGUCCGACGAUCCUUGUAGUUUUUAACAUCCCAUACUUCCAUUUGUCCCCUCAGAUUUCCAAAUCCAGCUAAUACUAAUAUAUGUCCAUGAGGGCUAUAGAAGGCUGCGUUGCGAGGACCAGUCCCAAAGUCCAACAGAGGAUUGAGCAUCA
# B4: 87705668_87706460_6155_CDS_ENSG00000163629_ENST00000511467|human|control|control (ssRNA)
# RNA: GGGAGUUCUACAGUCCGACGAUCCACAACAUCCAGCAGAGACUGGAUAACUUCAGCUUCUUGGGAAUCAUCAUAAAUGUCAUCUUCUUGUAUAUAAGAUUCUUUGGGCAGAGUCAAGUUUGGUGAUCCCUUUAUCUGAUAAGUCAACAGAGGAUUGAGCAUCA
# B5: chr7:13615833:13615834:+_ENSMUSG00000005566_ENSMUST00000005705|mus_mus|motif|central (ssRNA)
# RNA: GGGAGUUCUACAGUCCGACGAUCCUUGUUGAACUGUUUGAACAUGCGGCCCACAUCUUGAGCAAACUCCUGGGGGGAGCGGUAAGGAGGUGACAGCUUCUCUUGGAGGCGAGCACGAAUCAAGGUCAGGUCUAGGGUACCACCCAACAGAGGAUUGAGCAUCA
# B6: chr1:60041781:60041782:+_ENSMUSG00000041040_ENSMUST00000036540|mus_hu|mus_mus_mus_hu_False|8_28 (ssRNA)
# RNA: GGGAGUUCUACAGUCCGACGAUCAAGUUUACAAUAGUAAAGUAAAUGCAGUAGUGGCAAAUUUUCUUUUAUUUUCCUUCACAAAAGAAAAUCUUUAUAACCCAGUCCAAUCCCAGAACAUAGUGAAUCUCCAUGGGUCUGACUCAACAGAGGAUUGAGCAUCA
# B7: chr2:9724522:9724523:-_ENSG00000134308_ENST00000238081|hu_hu|FALSE|FALSE (ssRNA)
# RNA: GGGAGUUCUACAGUCCGACGAUCGGCUUUUUUGGGACUACAGUCAAUGAUUAGCAACACACAAUAGUGGUCCAACUCUCUAAAUAACAAUCACUAGACAAACUGGACACCCUCUCACAUGUGCACAAAUCUGCAUGGAAAAGUCAACAGAGGAUUGAGCAUCA
# B8: chr2:217001844:217001845:+_ENSG00000079246_ENST00000392132|hu_hu|hu_hu_hu_mus_False|1_1 (ssRNA)
# RNA: GGGAGUUCUACAGUCCGACGAUCACCAACUUGAGGAUUAGAUCUUUUGUCAUAAGCAUAUCGGACGAUGGCGACCAUGUUUAACUCAUCCAAAGCAUGAACGAGAGAGGAAAGGGCAACAGCUGCCGCCUCAUCAUCUCUUGCCAACAGAGGAUUGAGCAUCA
# B9: chr5:121887652:121887653:+_ENSMUSG00000042719_ENSMUST00000042163|mus_mus|FALSE|FALSE (ssRNA)
# RNA: GGGAGUUCUACAGUCCGACGAUCGAAGACCAGAUUCUCUAGGACUGCAGGCUGGGUCUUCACAUUGCCAUCUGUAACUUCUAAGAGGUCCCCUUUACAUGUGCUGAAGACACCUUUCAAUAGUUCUAGUAAAGAUGCAAGACUCAACAGAGGAUUGAGCAUCA
# B10: chrX:45984076:45984077:+_ENSMUSG00000031105_ENSMUST00000114936|mus_hu|FALSE|FALSE (ssRNA)
# RNA: GGGAGUUCUACAGUCCGACGAUCGAAACGGGCAUCAAUGCUUUGGCCUUGAACCUGAAGUCGUGUUUUGGUAAGGUCCACAGGGAAAGUCCCAAACUCAGCCACGAUAGAGGCAAGGCCGCCAUAUACAAAGGGUUUCCAAUUCAACAGAGGAUUGAGCAUCA
# B11: chr19:36946997:36946998:+_ENSMUSG00000024811_ENSMUST00000025729|mus_mus|motif|central (ssRNA)
# RNA: GGGAGUUCUACAGUCCGACGAUCAUAUUUUCCUUUUGCUGCAGCUUCAUGUAAAGGUGUGAACUUCCACAAGUCAGCGACAUUGACGGCUGCUCCAUGCUUGACAAGAAGUUCUGCAACUUCAUAGUGUCCAUAAGAACAUGCCAACAGAGGAUUGAGCAUCA
# B12: chr9:14812383:14812384:-_ENSMUSG00000031934_ENSMUST00000164273|mus_mus|mus_mus_mus_hu_True|1_108 (ssRNA)
# RNA: GGGAGUUCUACAGUCCGACGAUCAUAGCUCAAGUAGAUACACGCUAACAGUAUAAUGAUGAGUGUCAGCAGGCGGCAGCUAAUGUACUUGAUGAUUAAAUUAUUAGAAUUUUUCUUUGUCUUCAAGUACUGCUCCACGAUUGGCAACAGAGGAUUGAGCAUCA
# B13: chr11:86132931:86132932:-_ENSMUSG00000034297_ENSMUST00000043624|mus_mus|motif|central (ssRNA)
# RNA: GGGAGUUCUACAGUCCGACGAUCUCCAAAAGGUCCAACUGGAUCAUCCUUGAAUUUAUCAUUUGGAAGUUGAGGUGGUAAAAAUUCGGCAUCUUUUUUCUUUGGGACUUUGUAAUACUUCCAGGCUACAUUAGCUUCAUCUUCCAACAGAGGAUUGAGCAUCA
# B14: 153258998_153268111_1986_CDS_ENSG00000109670_ENST00000281708|human|control|control (ssRNA)
# RNA: GGGAGUUCUACAGUCCGACGAUCUAUCACUUGCAUCAUAUGUUUUACUUGUGUUGGUUCACAACUAUCAAUGAGUUCAUCUAAAGCAAGCAAUUUCUCUGGUCCACUCCAGCUCUGAAACAUUUUUAGCCAUUCCUGGAGGCCCAACAGAGGAUUGAGCAUCA
# B15: chr16:74336126:74336127:+_ENSG00000103035_ENST00000219313|hu_hu|FALSE|FALSE (ssRNA)
# RNA: GGGAGUUCUACAGUCCGACGAUCGACUUCUUCCACUGAAAUGUACGCUUCUGUAGGCAGCCCUAGGUCCUUCGGCUUCACAUCAAUGAUGACCAAUACGGAAUUAGGACAGUAUCUUUUCAUGAGUUCGUUGAUGGCAAUGUCCAACAGAGGAUUGAGCAUCA
# B16: chr2:5814250:5814251:-_ENSMUSG00000025816_ENSMUST00000102981|mus_hu|mus_mus_mus_hu_True|68_68 (ssRNA)
# RNA: GGGAGUUCUACAGUCCGACGAUCUUCCUUUCCGGUUUCUGAAUUUCUGGUAGAACUGCACAGAAUGGUUUAAUAACUUCUAAAAAUUUGAUGCCCAUGGCUGCUGCUGGGGAGGCCCAGGGGGAAACCGCGGCCUCGGCGCUGCAACAGAGGAUUGAGCAUCA
# B17: chr2:198351390:198351391:-_ENSG00000144381_ENST00000345042|hu_hu|hu_hu_hu_mus_False|38_68 (ssRNA)
# RNA: GGGAGUUCUACAGUCCGACGAUCUCAUUCCCACCCUCCACAGAAAGGCUGCUUCUGAACUCUCAUGGUGGUGGCAAGCGCUACAGUCCUGAUGCUCACAGAAUAGUAGAGAUGCCUCAGUGAUUUAAGUUGAAAGCAGGACACCAACAGAGGAUUGAGCAUCA
# B18: chrX:114868325:114868326:+_ENSG00000102024_ENST00000355899|hu_mus|FALSE|FALSE (ssRNA)
# RNA: GGGAGUUCUACAGUCCGACGAUCGGGUGUAAGCUUCUUCUUAUUGAUUGCUCUCUCGUCAAUUGUAUCAGGAACUGAAAGGUUGAUCAUUUUGCAGAGCACGAUCCCAUCACCAACUGCUUUGAACAGGUCAUCAGUAUUUGGCAACAGAGGAUUGAGCAUCA
# B19: chr10:70718461:70718462:-_ENSMUSG00000019927_ENSMUST00000020085|mus_hu|motif|central (ssRNA)
# RNA: GGGAGUUCUACAGUCCGACGAUCGUAAAAAUCAAAUGGUUUCAUGGUACAAUGAAACAGUAAACAGUGCUCAAUUUACUGCGGAUGUUGAAAAAAACCUAGAUUUUACAGUACUCUGGUAUAUAUGAAAAUGUUUUUGAUUUUCAACAGAGGAUUGAGCAUCA
# B20: chr4:148551591:148551592:-_ENSMUSG00000063077_ENSMUST00000060537|mus_hu|mus_mus_mus_hu_False|18_58 (ssRNA)
# RNA: GGGAGUUCUACAGUCCGACGAUCACCUGACAAAAUUAAAUAUCCCUGUAAAUUAGACAAUAAGCAGCAGGCAACAAAGUCUAUGCUUUGGAAUAUGUGCCAGGAAAAGUCAUCUUGUAGACCCCAAUCAAGAGACAGUUCACACAACAGAGGAUUGAGCAUCA
# B21: 29379763_29386992_1971_3pUTR_ENSG00000159023_ENST00000356093|human|control|control (ssRNA)
# RNA: GGGAGUUCUACAGUCCGACGAUCAACAUUAAAUUGCUAUGUCUGAUAUAAAUGUUUUCACCAUCUAGUCUUUCUCUCUUUUUCUUCCAUGCUUCUGUGGGCUCUGGCUCAGCUUGCUCAGGUGGCUCGUCUUCCUUUUUCACUCAACAGAGGAUUGAGCAUCA
# B22: chr13:55314627:55314628:+_ENSMUSG00000021488_ENSMUST00000099490|mus_hu|motif|central (ssRNA)
# RNA: GGGAGUUCUACAGUCCGACGAUCUACUGGUACUGGAAUCUGGAUCAUCCGAAAGGGCUGUCCUUGUCUUCAGGGGCAUCGGAAUUCACUGGAUUGGAAAAGGGCAGCAGACAAUUUCUUCUGGGUAGUUCACAGGUCUGAUCCCAACAGAGGAUUGAGCAUCA
# Biological target: T1, UNK ZnF1-3 (human, UniProt Q9C0B0 31-174)
# T1 sequence: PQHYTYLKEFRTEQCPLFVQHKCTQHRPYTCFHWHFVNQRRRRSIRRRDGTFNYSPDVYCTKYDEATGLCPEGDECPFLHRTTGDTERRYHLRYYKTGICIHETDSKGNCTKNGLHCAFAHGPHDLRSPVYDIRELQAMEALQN
# Assay: nsRBNS (natural sequence RNA bind-n-seq); RBNS binding buffer (assumed for nsRBNS): 25 mM Tris pH 7.5, 150 mM KCl, 3 mM MgCl2, 0.01% Triton X-100, 500 ug/ml BSA, 20 U/ml SUPERase-In, 4 C; UNK is unkempt and MSI1 is Musashi-1; names of the RNAs are library labels; protein concentration not given here; high values mean tight binding
row,Binder,binding signal
1,B1,0.876 enrichment R
2,B2,1.28 enrichment R
3,B3,1.19 enrichment R
4,B4,0.776 enrichment R
5,B5,2.35 enrichment R
6,B6,0.939 enrichment R
7,B7,1.51 enrichment R
8,B8,1.64 enrichment R
9,B9,1.12 enrichment R
10,B10,0.706 enrichment R
11,B11,0.712 enrichment R
12,B12,0.923 enrichment R
13,B13,0.867 enrichment R
14,B14,1.01 enrichment R
15,B15,0.879 enrichment R
16,B16,1.59 enrichment R
17,B17,1.44 enrichment R
18,B18,0.423 enrichment R
19,B19,0.616 enrichment R
20,B20,1.76 enrichment R
21,B21,0.579 enrichment R
22,B22,0.941 enrichment R
